Reference: the supplement of paper PMC4967469
pIC50: −log10 of the molar value. A lower IC50 marks a more sensitive line; a fit beyond the top or the lowest dose is shown as a bound at that dose. AUC, from the same fit, is the share of area under the viability curve across the 256-fold dose range; the more sensitive the line, the further below 1. For some of these results: A top dose marked as inferred comes from the curve model; the source does not state it.

How the values were obtained:
Test in all cases: Viability of human cancer cell lines after 72 h of drug (GDSC screen)
Dabrafenib = compound: CC(C)(C)c1nc(-c2cccc(NS(=O)(=O)c3c(F)cccc3F)c2F)c(-c2ccnc(N)n2)s1 [Dabrafenib]; conditions: top dose 10 µM
Description: (§1)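 Human cancer cell lines in 384-well plates, medium with 10% serum, drug for 72 h over a 256-fold dose range (nine 2-fold or five 4-fold steps up to the top dose). Adherent lines were fixed and stained with the nucleic acid dye Syto60, suspension lines read with resazurin; signal relative to control wells, capped at 0 and 100%. One two-parameter sigmoid per drug and line, fitted in a mixed model over all curves with the slope shared within a line.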

Axitinib = compound: CNC(=O)c1ccccc1Sc1ccc2c(/C=C/c3ccccn3)n[nH]c2c1 [Axitinib]; conditions: top dose 2 µM
Description: as §1

SN-38 = compound: CCc1c2c(nc3ccc(O)cc13)-c1cc3c(c(=O)n1C2)COC(=O)[C@]3(O)CC [SN-38]; conditions: top dose 0.05 µM; top dose inferred
Description: as §1

Methotrexate = compound: CN(Cc1cnc2nc(N)nc(N)c2n1)c1ccc(C(=O)N[C@@H](CCC(=O)O)C(=O)O)cc1 [Methotrexate]; conditions: top dose 0.2 µM
Description: as §1

Vorinostat = compound: O=C(CCCCCCC(=O)Nc1ccccc1)NO [Vorinostat]; conditions: top dose 10 µM
Description: as §1

| Cell Line | AUC (Dabrafenib) | pIC50 (Dabrafenib) | AUC (Axitinib) | pIC50 (Axitinib) | AUC (SN-38) | pIC50 (SN-38) | AUC (Methotrexate) | pIC50 (Methotrexate) | AUC (Vorinostat) | pIC50 (Vorinostat) |
| --- | --- | --- | --- | --- | --- | --- | --- | --- | --- | --- |
| NCI-H2135 (non-small cell lung carcinoma, adherent) | 0.99 | < 5.00 | 0.99 | < 5.70 | 0.99 | < 7.30 | 0.991 | < 6.70 | 0.989 | < 5.00 |
| NCI-H2141 (small cell lung carcinoma, suspension) | 0.99 | < 5.00 | 0.986 | < 5.70 | 0.944 | < 7.30 | 0.972 | < 6.70 | 0.819 | 5.26 |
| NCI-H2172 (non-small cell lung carcinoma, adherent) | 0.98 | < 5.00 | 0.983 | < 5.70 | 0.981 | < 7.30 | 0.983 | < 6.70 | 0.894 | < 5.00 |
| NCI-H2227 (small cell lung carcinoma, semi-adherent) | 0.978 | < 5.00 | 0.908 | < 5.70 | 0.767 | 7.68 | 0.85 | 6.74 | 0.648 | 5.77 |
| NCI-H2291 (lung adenocarcinoma, adherent) | 0.841 | < 5.00 | 0.983 | < 5.70 | 0.932 | < 7.30 | 0.971 | < 6.70 | 0.894 | < 5.00 |
| NCI-H2342 (lung adenocarcinoma, adherent) | 0.984 | < 5.00 | 0.981 | < 5.70 | 0.869 | < 7.30 | 0.986 | < 6.70 | 0.949 | < 5.00 |
| NCI-H2347 (lung adenocarcinoma, adherent) | 0.895 | < 5.00 | 0.983 | < 5.70 | 0.796 | 7.53 | 0.978 | < 6.70 | 0.897 | < 5.00 |
| NCI-H2405 (lung adenocarcinoma, adherent) | 0.902 | < 5.00 | 0.943 | < 5.70 | 0.681 | 7.97 | 0.986 | < 6.70 | 0.885 | < 5.00 |
| NCI-H2444 (non-small cell lung carcinoma, adherent) | 0.986 | < 5.00 | 0.983 | < 5.70 | 0.957 | < 7.30 | 0.988 | < 6.70 | 0.785 | 5.31 |
| NCI-H2452 (mesothelioma, adherent) | 0.83 | 5.10 | 0.955 | < 5.70 | 0.793 | 7.56 | 0.928 | < 6.70 | 0.885 | < 5.00 |
| NCI-H3122 (lung adenocarcinoma, adherent) | 0.961 | < 5.00 | 0.937 | < 5.70 | 0.738 | 7.82 | 0.853 | 6.79 | 0.668 | 5.73 |
| NCI-SNU-1 (stomach, suspension) | 0.956 | < 5.00 | 0.982 | < 5.70 | 0.84 | 7.44 | 0.927 | < 6.70 | 0.95 | < 5.00 |
| NCI-SNU-16 (stomach, suspension) | 0.979 | < 5.00 | 0.817 | 6.02 | 0.844 | 7.53 | 0.946 | < 6.70 | 0.692 | 5.70 |
| NKM-1 (acute myeloid leukaemia, suspension) | 0.762 | 5.43 | 0.809 | 5.97 | 0.382 | 8.84 | 0.691 | 7.36 | 0.38 | 6.54 |
| NMC-G1 (glioma, adherent) | 0.394 | 6.52 | 0.98 | < 5.70 | 0.541 | 8.38 | 0.977 | < 6.70 | 0.864 | < 5.00 |
| NTERA-2 cl.D1 (testis, adherent) | 0.96 | < 5.00 | 0.892 | < 5.70 | 0.203 | 9.38 | 0.954 | < 6.70 | 0.633 | 5.84 |
| NU-DUL-1 (B-cell lymphoma, suspension) | 0.992 | < 5.00 | 0.939 | < 5.70 | 0.593 | 8.27 | 0.992 | < 6.70 | 0.472 | 6.27 |
| NUGC-4 (stomach, adherent) | 0.986 | < 5.00 | 0.979 | < 5.70 | 0.894 | < 7.30 | 0.924 | < 6.70 | 0.526 | 6.13 |
| NY (osteosarcoma, adherent) | 0.982 | < 5.00 | 0.951 | < 5.70 | 0.648 | 8.10 | 0.835 | 6.89 | 0.764 | 5.44 |
| OACM5-1 (oesophagus, semi-adherent) | 0.985 | < 5.00 | 0.984 | < 5.70 | 0.961 | < 7.30 | 0.971 | < 6.70 | 0.886 | < 5.00 |
| OACp4C (oesophagus, adherent) | 0.958 | < 5.00 | 0.909 | < 5.70 | 0.905 | < 7.30 | 0.903 | < 6.70 | 0.617 | 5.85 |
| OC-314 (ovary, adherent) | 0.892 | 5.05 | 0.983 | < 5.70 | 0.499 | 8.51 | 0.899 | 6.72 | 0.743 | 5.56 |
| OCI-AML5 (acute myeloid leukaemia, suspension) | 0.887 | 5.02 | 0.928 | < 5.70 | 0.57 | 8.32 | 0.875 | 6.78 | 0.562 | 6.04 |
| OCI-LY-19 (B-cell lymphoma, suspension) | 0.586 | 5.98 | 0.925 | < 5.70 | 0.539 | 8.40 | 0.81 | 7.02 | 0.673 | 5.74 |
| OCI-M1 (acute myeloid leukaemia, suspension) | 0.995 | < 5.00 | 0.979 | < 5.70 | 0.649 | 8.14 | 0.895 | 6.85 | 0.538 | 6.11 |
